The text below walks through data of paper PMC5836133.

Some of the results follow. At the low end of the ranking the order means little.

This assay relates to T1, GST-NbGlk1(82-244).
T1 sequence: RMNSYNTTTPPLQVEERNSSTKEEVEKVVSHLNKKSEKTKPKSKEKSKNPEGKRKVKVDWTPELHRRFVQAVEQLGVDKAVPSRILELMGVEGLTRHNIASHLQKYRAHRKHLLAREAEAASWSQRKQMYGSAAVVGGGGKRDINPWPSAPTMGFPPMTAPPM
Kind of assay: protein-binding microarray.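 Further: rank-based score ranging −0.5 to +0.5 with E above 0.45 taken as significant binding.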 Conditions: NbGlk1 is a Golden2-like transcription factor of Nicotiana benthamiana; high values mean tight binding; most listed sequences are background and not binding sites; double strand, one strand shown.
In turn, AGCACAAA returned a binding signal of 0.0287 E-score.

In turn, ACAATCCT displayed a binding signal of 0.302 E-score.

Regarding ACTTGGAC, the binding signal is -0.0515 E-score.

As for AGGCTGAT, the binding signal is 0.0306 E-score.

As for AAGACACC, the binding signal is -0.118 E-score.

With AGAGAGAC, the binding signal is -0.32 E-score.

Take AAAGGCTA: the binding signal was -0.121 E-score.

For the sequence AGTGGGAT, the binding signal came out at 0.105 E-score.

For the sequence ATGTAGCC, the binding signal was -0.27 E-score.

Take ACCACGCC: the binding signal is -0.229 E-score.

As to ACGTGTCA, the binding signal was -0.166 E-score.

In turn, ATCCTTGG registered a binding signal of 0.194 E-score.

Regarding AGCTCTGC, the binding signal is -0.195 E-score.

On to AGACTTCA, for which the binding signal is -0.198 E-score.

AGTATCGA registered a binding signal of 0.16 E-score.

AGAATCCC: the binding signal amounted to 0.433 E-score.

Turning to AGGACCTG, the binding signal was -0.254 E-score.

Turning to ATGCCGTG, the binding signal was -0.0945 E-score.

AACAGTAC: the binding signal was -0.0484 E-score.

Sequence ATCGCACC displayed a binding signal of 0.247 E-score.

In the case of ATAAGTCC, the binding signal is -0.0199 E-score.

ACTCCTTC: the binding signal is -0.223 E-score.

AGTTGTGG: the binding signal was -0.109 E-score.

In the case of AACCCCAA, the binding signal is -0.203 E-score.

The sequence AATCCTGC returned a binding signal of 0.356 E-score.

The sequence AACCCGAT showed a binding signal of 0.0786 E-score.

Take ACCGTAGT: the binding signal is -0.135 E-score.

On to AGGCGGTG, for which the binding signal was -0.0949 E-score.

Consider ACTTGTGA, for which the binding signal is -0.0277 E-score.

As for AGCACATC, the binding signal is -0.153 E-score.

Turning to AGACTGGG, the binding signal was -0.165 E-score.

In turn, CAATCTAA returned a binding signal of 0.351 E-score.

With ACTGTACA, the binding signal was -0.0745 E-score.

In the case of ACGTAGCC, the binding signal was -0.211 E-score.

For ACCAGCAC, the binding signal is -0.108 E-score.

Turning to AAGGTTGT, the binding signal was -0.149 E-score.

For the sequence AAGTACGC, the binding signal is -0.125 E-score.

With AATTGCCA, the binding signal was 0.0599 E-score.

Regarding ACGACGCC, the binding signal was -0.172 E-score.

As to AACGCTTA, the binding signal was -0.07 E-score.

In turn, ACTGACGG had a binding signal of 0.0189 E-score.

Regarding ACCCCAAT, the binding signal was -0.214 E-score.

As to AGCAGTAC, the binding signal is -0.102 E-score.

ACGTTAGT gave a binding signal of 0.0229 E-score.

For ACGTTAGG, the binding signal was -0.0399 E-score.

Consider ACGATTAT, for which the binding signal worked out at 0.164 E-score.

In the case of AAAGTACG, the binding signal turned out to be 0.0564 E-score.

ATTGTCGA returned a binding signal of 0.146 E-score.

Sequence CAAAAGGA came in with a binding signal of 0.0725 E-score.

In turn, ATTAGAAC yielded a binding signal of 0.00223 E-score.

As to AGTGAATA, the binding signal was determined as 0.0746 E-score.

Regarding AATAGAGA, the binding signal came to 0.257 E-score.

For the sequence CACATGGA, the binding signal was -0.0277 E-score.

CAATAGTA had a binding signal of 0.0816 E-score.

Sequence ATCCCACG had a binding signal of 0.0503 E-score.

As for AGGGAGTA, the binding signal is -0.0612 E-score.

Turning to AGCTGGCA, the binding signal was -0.112 E-score.

As to AACATCCC, the binding signal was -0.0434 E-score.

On to ATGAAAGG, for which the binding signal was -0.185 E-score.

CACCCCGC: the binding signal was -0.0796 E-score.

On to ACCGACGG, for which the binding signal was -0.298 E-score.

ACCGAATA: the binding signal is 0.152 E-score.

Turning to ATCACCAG, the binding signal was found to be 0.0973 E-score.

As for ACGGATGC, the binding signal is -0.1 E-score.

On to AACCGGGG, for which the binding signal was -0.18 E-score.

As to CACGCGAC, the binding signal was -0.0712 E-score.

As for ATGTATAC, the binding signal was found to be 0.133 E-score.

ACTTGCCC: the binding signal was -0.225 E-score.

Regarding ACCTGACG, the binding signal was -0.241 E-score.

Consider AAGGGGAG, for which the binding signal was -0.0864 E-score.

AGATCGGC displayed a binding signal of 0.0957 E-score.

As for CAGACAGA, the binding signal is -0.0531 E-score.

AAAAGCAC: the binding signal was found to be 0.0351 E-score.

On to ACCTGATC, for which the binding signal turned out to be 0.033 E-score.

For the sequence ATGGCTCC, the binding signal was -0.141 E-score.

For ACAAGCTC, the binding signal is -0.179 E-score.

Regarding AATCGCGA, the binding signal is 0.376 E-score.

Take ATCCAGAT: the binding signal is 0.364 E-score.

As to ACGCCACC, the binding signal was -0.152 E-score.

ATTGATAG showed a binding signal of 0.135 E-score.

In turn, ATCTCCGA yielded a binding signal of 0.311 E-score.

The sequence AACAAATA had a binding signal of 0.197 E-score.

With AAACTTGC, the binding signal is -0.026 E-score.

Consider AAGCCCCT, for which the binding signal is -0.272 E-score.

As for ATGTAGTG, the binding signal was -0.00293 E-score.

With ATTAGCCA, the binding signal was -0.0468 E-score.

Turning to ACTCGAAA, the binding signal came out at 0.0429 E-score.

On to AATGGGCC, for which the binding signal is -0.28 E-score.

Consider CACAATGG, for which the binding signal was -0.0952 E-score.

On to ATATGCTA, for which the binding signal came to 0.224 E-score.

As for ATCATCTG, the binding signal came to 0.16 E-score.

On to AATCTCAA, for which the binding signal was 0.421 E-score.

As for ATTTATCG, the binding signal turned out to be 0.184 E-score.

In the case of ACGGGCCA, the binding signal is -0.235 E-score.

AAGCACCT: the binding signal was -0.188 E-score.

AAATATGA gave a binding signal of 0.226 E-score.

With AACCTTCT, the binding signal is -0.234 E-score.

AGCGAGCA: the binding signal was -0.0448 E-score.

With CACGAAAG, the binding signal is -0.0933 E-score.

For AGAGCCCT, the binding signal is -0.272 E-score.

With CACGGTCG, the binding signal is -0.166 E-score.

Consider CACGAGTC, for which the binding signal is -0.0598 E-score.

In the case of ATGTAGCG, the binding signal is -0.233 E-score.

Regarding ACTGCCCC, the binding signal was -0.196 E-score.

Consider ACGAGGTA, for which the binding signal was -0.0641 E-score.

Take AACCGCCT: the binding signal is -0.248 E-score.

For AGGAGATG, the binding signal is -0.0561 E-score.

Turning to ATCGGGTC, the binding signal was -0.0136 E-score.

In the case of AAGGCGTA, the binding signal is -0.12 E-score.

Turning to ATATGACA, the binding signal came to 0.0921 E-score.

As for ACTTCATC, the binding signal is -0.181 E-score.

The sequence CAAACCTA displayed a binding signal of 0.0926 E-score.

ATATCTCA came in with a binding signal of 0.389 E-score.

On to AAGTAAGG, for which the binding signal was -0.0411 E-score.

For the sequence ATACTGAA, the binding signal was 0.116 E-score.

For AGTGCGGA, the binding signal was -0.000344 E-score.

In the case of ACTGTTGC, the binding signal is -0.223 E-score.

For AGAGGGAT, the binding signal is 0.0446 E-score.

With AGAAGTGA, the binding signal is -0.0712 E-score.

In the case of AAGAGCCT, the binding signal was -0.202 E-score.

The sequence ATCCGTGA yielded a binding signal of 0.236 E-score.

Turning to AGCGGACC, the binding signal is -0.246 E-score.

As to AAGGTAGG, the binding signal is -0.0722 E-score.

AAATGCTC: the binding signal was -0.086 E-score.

AATCACGC: the binding signal was determined as 0.256 E-score.

With AGGGTACC, the binding signal is -0.332 E-score.

As for ACCAATGA, the binding signal is -0.00998 E-score.

AGTGATGA: the binding signal worked out at 0.0264 E-score.

The sequence ATGAAATC gave a binding signal of 0.452 E-score.

Regarding ATTTCCCC, the binding signal was found to be 0.333 E-score.

Sequence AAGGGATT gave a binding signal of 0.318 E-score.

As for ATCTCAAT, the binding signal stood at 0.245 E-score.

ATCGCAAG registered a binding signal of 0.198 E-score.

With ACAAGGCC, the binding signal was -0.223 E-score.

On to ACCACATA, for which the binding signal is 0.0346 E-score.

Take AATTTGGT: the binding signal turned out to be 0.1 E-score.

ACAATTAC gave a binding signal of 0.184 E-score.

The sequence ATCTAGAA yielded a binding signal of 0.259 E-score.

Take AGAACTGC: the binding signal was -0.0745 E-score.

The sequence ACTGCGTA showed a binding signal of 0.0927 E-score.

For ACAGGCGT, the binding signal is -0.25 E-score.

Turning to ATACGGTC, the binding signal was 0.0679 E-score.

Turning to ACTGAACG, the binding signal was -0.0512 E-score.

In the case of CACAGGGC, the binding signal is -0.244 E-score.

Consider ACTTTCCC, for which the binding signal is 0.0587 E-score.

AAAGTCCG: the binding signal is -0.092 E-score.

For ATTCTTTG, the binding signal came to 0.298 E-score.

The sequence ACATTCGA registered a binding signal of 0.0193 E-score.

The sequence AACTAAAA returned a binding signal of 0.195 E-score.

AGCTATAA: the binding signal is 0.0236 E-score.

ATAAACAC had a binding signal of 0.0306 E-score.

AAGAACAA: the binding signal came out at 0.0422 E-score.

Turning to AACCGGCT, the binding signal is -0.23 E-score.

In the case of AGGAGTAT, the binding signal was -0.00811 E-score.

On to AGCAGCAA, for which the binding signal is -0.0389 E-score.

Take ATAAATAA: the binding signal is 0.13 E-score.

Take AGTAGCAC: the binding signal is -0.111 E-score.

For the sequence AATGGGAA, the binding signal was -0.00384 E-score.

Take ACCTCCGA: the binding signal was -0.273 E-score.

In turn, CAAATCCA returned a binding signal of 0.379 E-score.

With ACTGTTAT, the binding signal worked out at 0.189 E-score.

In turn, ACGAATCC came in with a binding signal of 0.361 E-score.

On to AAGTGGGA, for which the binding signal is -0.0195 E-score.

For CAGCCTAC, the binding signal was -0.0834 E-score.

For the sequence ACTCTCAC, the binding signal was -0.0855 E-score.

Take ATGAACAC: the binding signal is -0.0347 E-score.

For ACTCACAG, the binding signal was -0.118 E-score.

Turning to AATCATGA, the binding signal came to 0.254 E-score.

For the sequence ATGCGTTA, the binding signal was -0.0927 E-score.

AGCGCCGC: the binding signal was -0.225 E-score.

Consider AGGCTGGA, for which the binding signal is -0.135 E-score.

In the case of AACGTGCT, the binding signal is -0.0691 E-score.
